Among all 310,000 compounds or so, about 2,200 (0.71%) showed an effect of 50% or more. Effects have a minus sign here. Some of the results follow.
target: human ether-à-go-go-related gene (hERG) potassium channel (human, UniProt Q12809); assay: primary screen, population patch clamp on CHO cells stably expressing hERG
Sequence (Q12809 whole entry, looked up): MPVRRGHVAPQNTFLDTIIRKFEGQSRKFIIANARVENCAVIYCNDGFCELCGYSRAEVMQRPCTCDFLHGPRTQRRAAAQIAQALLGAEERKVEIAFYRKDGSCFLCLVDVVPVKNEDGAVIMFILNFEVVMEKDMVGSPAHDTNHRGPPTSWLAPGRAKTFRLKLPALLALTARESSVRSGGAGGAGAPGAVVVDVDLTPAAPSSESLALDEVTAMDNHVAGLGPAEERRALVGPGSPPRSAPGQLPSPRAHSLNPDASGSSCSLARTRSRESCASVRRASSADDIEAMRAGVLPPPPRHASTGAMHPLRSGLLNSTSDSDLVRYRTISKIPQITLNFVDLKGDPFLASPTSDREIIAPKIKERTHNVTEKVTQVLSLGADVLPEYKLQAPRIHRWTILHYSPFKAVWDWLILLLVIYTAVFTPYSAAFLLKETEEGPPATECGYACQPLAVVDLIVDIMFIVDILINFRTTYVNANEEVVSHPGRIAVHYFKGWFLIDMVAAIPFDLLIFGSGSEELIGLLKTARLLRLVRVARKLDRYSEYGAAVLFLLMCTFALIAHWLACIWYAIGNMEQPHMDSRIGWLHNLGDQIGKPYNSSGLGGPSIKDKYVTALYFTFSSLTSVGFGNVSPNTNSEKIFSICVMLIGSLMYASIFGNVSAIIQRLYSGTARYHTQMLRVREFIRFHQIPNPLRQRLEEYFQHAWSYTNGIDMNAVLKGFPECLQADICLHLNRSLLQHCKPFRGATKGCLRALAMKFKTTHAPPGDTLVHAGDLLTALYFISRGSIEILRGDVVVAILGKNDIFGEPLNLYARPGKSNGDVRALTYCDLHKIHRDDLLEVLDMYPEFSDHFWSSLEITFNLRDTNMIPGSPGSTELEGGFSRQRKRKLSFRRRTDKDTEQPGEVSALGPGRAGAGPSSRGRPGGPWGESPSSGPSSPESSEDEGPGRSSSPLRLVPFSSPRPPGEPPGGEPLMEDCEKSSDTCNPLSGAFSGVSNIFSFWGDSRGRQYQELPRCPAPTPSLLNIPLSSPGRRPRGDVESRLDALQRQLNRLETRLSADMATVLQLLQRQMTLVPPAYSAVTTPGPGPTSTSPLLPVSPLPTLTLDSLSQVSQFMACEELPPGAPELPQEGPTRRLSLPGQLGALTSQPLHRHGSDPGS

Compared with `CCN(CC)CCCNc1nc2ccccc2[nH]1`, `CCCCN(CCCC)c1nc(-c2ccncc2)nc2ccccc12` is lower in “hERG current change (%, negative = inhibition) at 1uM” value: 13% for the first, 12% for the second.

Compared with `Cc1ccc(-n2ncc3c(Nc4c(C)n(C)n(-c5ccccc5)c4=O)ncnc32)c(C)c1`, `Cc1nc2c(C(=O)N3CCN(c4ccccn4)CC3)cnn2c(C)c1Cc1cccc(Cl)c1` is lower in “hERG current change (%, negative = inhibition) at 1uM” value: 8.86% for the first, -1.34% for the second.

First: CCOC(=O)CSc1nnc(CNc2ccc(F)cc2)o1
Second: CC(Sc1nnc(-c2ccc(OC(F)F)cc2)o1)C(=O)NCC1CCCO1 (centres unmarked)
The “hERG current change (%, negative = inhibition) at 1uM” value of the first is higher: 2.69% for the first, -7.64% for the second.

Compared with `Cc1ccc(S(=O)(=O)N(CC(O)CN2CCOCC2)c2cccc([N+](=O)[O-])c2)cc1` (centres unmarked), `CC(=O)c1ccc(N2CCN(CC(=O)Nc3ccc(N4CCOCC4)cc3)CC2)cc1` is higher in “hERG current change (%, negative = inhibition) at 1uM” value: 2.27% for the first, 5.88% for the second.

Compared with `CC(C)(C)c1ccc(Cn2ccc(-c3ccc4c(c3)OCO4)n2)cc1`, `c1ccc2c(c1)oc1c(NCc3ccc4c(c3)OCO4)ncnc12` is higher in “hERG current change (%, negative = inhibition) at 1uM” value: 10% for the first, 14.7% for the second.

Going from `N#Cc1cc(-c2ccccc2)cnc1Sc1ccc(Cl)cc1` to `c1ccc(-c2noc(-c3ccc4ccccc4c3)n2)nc1`, the “hERG current change (%, negative = inhibition) at 1uM” value rises from -17.2% to 17.2%.

Compared with `C=CCNc1scc(-c2ccccc2)[n+]1CC=C.[Br-]`, `CN1C(=O)c2cccc3c(S(=O)(=O)NCCc4ccccc4)ccc1c23` is lower in “hERG current change (%, negative = inhibition) at 1uM” value: 0.81% for the first, -4.73% for the second.

Compared with `Cc1ccccc1Cn1nnc(-c2cccc(C(=O)O)c2)n1`, `CCN(C(=O)Cc1c(C(=O)O)n(C)c2ccccc12)c1cccc(C)c1` is higher in “hERG current change (%, negative = inhibition) at 1uM” value: 5.51% for the first, 10.6% for the second.

Compared with `O=C(NCC1(c2ccccc2)CCCC1)c1ccc(Br)cc1`, `Cc1cc(N2CCCC2)ccc1NC(=O)CN1C(=O)NC(C)(c2ccccc2)C1=O` (centres unmarked) is higher in “hERG current change (%, negative = inhibition) at 1uM” value: 8.41% for the first, 16% for the second.

First: CCC(=O)Nc1nonc1-c1nc2ccccc2n1CC(C)C
Second: Nc1nonc1C(=O)NCCNC(=O)c1ccccc1F
The “hERG current change (%, negative = inhibition) at 1uM” value of the first is lower: -5.27% for the first, 7.28% for the second.

Compared with `Cc1cccc(NC(=O)c2cnc3n(c2=O)CCS3)c1`, `Cc1ccccc1C(=O)Nc1cccc(C(=O)N/N=C/c2ccccn2)c1` is higher in “hERG current change (%, negative = inhibition) at 1uM” value: -0.584% for the first, 10.9% for the second.

First: NC(=O)CC(NC(=O)Cc1ccc(Br)cc1)c1ccc(N2CCC(N3CCCCC3)CC2)c([N+](=O)[O-])c1 (centres unmarked)
Second: Cn1c(=O)[nH]c(=O)c2c1nc(N1CCCCC1)n2CC(O)COc1ccc([N+](=O)[O-])cc1 (centres unmarked)
The “hERG current change (%, negative = inhibition) at 1uM” value of the first is higher: 17.3% for the first, -31.5% for the second.

Compared with `Oc1cccc(/C=N/N2CCCCC2)c1O`, `C/C=C(\C)C(=O)N1CCC(C(=O)c2ccccc2)CC1` is higher in “hERG current change (%, negative = inhibition) at 1uM” value: 7.04% for the first, 13.9% for the second.

Compared with `COC(=O)c1cn(C(=O)c2cccc(Br)c2)c2ccccc12`, `COc1ccccc1C(=O)NNC(=O)c1cccc(Br)c1` is higher in “hERG current change (%, negative = inhibition) at 1uM” value: 7.93% for the first, 16.4% for the second.

Going from `CCOc1cc(C(=O)NCc2nnc(SCC(=O)OC)n2C)cc(OCC)c1OCC` to `CCCCn1c(SCC(=O)NNC(=O)c2ccco2)nnc1-c1ccco1`, the “hERG current change (%, negative = inhibition) at 1uM” value rises from 1.33% to 11.4%.

First: C[C@H]1CCC[C@@]2(O[C@@H](CCO)C[C@H](O)[C@H]2O)O1
Second: O=C(O)Cc1cc2c(s1)CCCCC2
The “hERG current change (%, negative = inhibition) at 1uM” value of the first is higher: 16.4% for the first, 11.7% for the second.

Compared with `COc1ccc(CC(=O)NCCc2ccc(S(N)(=O)=O)cc2)cc1`, `O=C(CCc1ccc(S(=O)(=O)NCc2ccccc2)cc1)N1CCN(Cc2ccc3c(c2)OCO3)CC1` is lower in “hERG current change (%, negative = inhibition) at 1uM” value: 14.4% for the first, -5.17% for the second.

Going from `COC(=O)c1cccc(N(CC(=O)NC2CCCC2)C(=O)CNC(=O)c2cccs2)c1` to `COc1ccc(Cl)cc1NC(=O)C(C)N1CCN(c2ccccn2)CC1` (centres unmarked), the “hERG current change (%, negative = inhibition) at 1uM” value falls from 12.3% to 0.814%.

Going from `Cn1nc(C(C)(C)C)cc1C(=O)NNC(=O)c1cccc(Cl)c1` to `CCN(CC)C(=O)C(=O)c1cccn1-c1ccc(C#N)cc1`, the “hERG current change (%, negative = inhibition) at 1uM” value falls from 12.9% to -1.14%.

Compared with `COC(=O)C1=C(Nc2ccc(C)cc2)C=C(C)C(C(=O)OC)C1c1cccc(OC)c1` (centres unmarked), `Cc1ccc(C)c(Sc2ccc(S(=O)(=O)Nc3ccc(C(=O)O)cc3)cc2)c1` is higher in “hERG current change (%, negative = inhibition) at 1uM” value: 1.77% for the first, 4.98% for the second.

Compared with `COc1cccc(Nc2nnc(Cc3cccnc3)c3ccccc23)c1`, `COc1ccccc1CCNC(=O)c1cnccn1` is higher in “hERG current change (%, negative = inhibition) at 1uM” value: -83.2% for the first, -0.0182% for the second.

Going from `CCOC(=O)N1CCN(CC(O)COc2ccccc2C(C)C)CC1.Cl` (centres unmarked) to `O=C(CSc1ccsc1[N+](=O)[O-])N1CCN(c2ccccc2)CC1`, the “hERG current change (%, negative = inhibition) at 1uM” value rises from 6.1% to 6.55%.

Going from `COCCCNCCOc1ccc(C(C)(C)c2ccccc2)cc1.O=C(O)C(=O)O` to `O=C(CC1(O)C(=O)Nc2ccccc21)c1ccccc1O` (centres unmarked), the “hERG current change (%, negative = inhibition) at 1uM” value rises from -2.99% to 6.42%.

Going from `CC(OC(=O)C1CCC(=O)N1)C(=O)Nc1cc(Cl)cc(Cl)c1` (centres unmarked) to `COc1cc(S(=O)(=O)NC(C)C)ccc1Cl`, the “hERG current change (%, negative = inhibition) at 1uM” value falls from 5.74% to 1.36%.

Going from `CN(CC(=O)N1CCN(c2ccccn2)CC1)S(=O)(=O)c1ccccc1` to `CC(=O)N1CCN(c2ccc(S(=O)(=O)N3CCCCC3)cn2)CC1`, the “hERG current change (%, negative = inhibition) at 1uM” value falls from 6.61% to -1.13%.

First: c1ccc(OCc2nc3c4c(ncn3n2)-c2ccccc2CC42CCCC2)cc1
Second: O=C1c2ccccc2C(Nc2ccc(S(=O)(=O)N3CCCCCC3)cc2)N1c1ccccn1 (centres unmarked)
The “hERG current change (%, negative = inhibition) at 1uM” value of the first is lower: 4.05% for the first, 10.4% for the second.

Going from `COC(=O)C1=C(C)Nc2nnnn2C1c1ccco1` (centres unmarked) to `CCOC(=O)C1=C(C)NC(C)=C(C(=O)OCC)C1c1ccco1`, the “hERG current change (%, negative = inhibition) at 1uM” value rises from 2.86% to 9.56%.

Going from `O=C(NCc1ccc2[nH]c3c(c2c1)CCCC3)N1CCOCC1` to `CCN1C(=O)S/C(=C\c2ccc(N3CCOCC3)cc2C)C1=O`, the “hERG current change (%, negative = inhibition) at 1uM” value falls from 7.25% to -25.1%.

Going from `CC(NC(=O)Cn1nc(C(F)(F)F)c2c1CCC2)c1ccccc1` (centres unmarked) to `O=C(CCc1ccccn1)NC1CCCc2c1cnn2-c1ccc(F)cc1F` (centres unmarked), the “hERG current change (%, negative = inhibition) at 1uM” value rises from 0.954% to 5.66%.

First: O=C(CSc1cccc[n+]1[O-])c1ccc(Cl)s1
Second: O=C(COc1ccccc1)Nc1ncn[nH]1
The “hERG current change (%, negative = inhibition) at 1uM” value of the first is lower: 8.71% for the first, 14% for the second.

Compared with `O=C(O)c1ccc(COc2ccc(CO)cc2Cl)cc1`, `CCOc1ccc(C(C)=O)cc1COc1cccnc1[N+](=O)[O-]` is higher in “hERG current change (%, negative = inhibition) at 1uM” value: -1.7% for the first, 9.57% for the second.

Going from `COc1cc(/C=C/CN2CCN(CCC(C)C)C(CCO)C2)ccc1O` (centres unmarked) to `COc1cc(CN2CCC(n3nccc3NC(=O)c3ccc4c(c3)OCO4)CC2)ccc1O`, the “hERG current change (%, negative = inhibition) at 1uM” value falls from 12.9% to 7.03%.

Compared with `Cc1cccc2cc(CN(C(=O)c3cccc([N+](=O)[O-])c3)C(C)C)c(=O)[nH]c12`, `COc1ccc(C)cc1NC(=O)c1ccc([N+](=O)[O-])cc1[N+](=O)[O-]` is lower in “hERG current change (%, negative = inhibition) at 1uM” value: 8.45% for the first, 3.08% for the second.

First: CCCSC1=C(C#N)C(c2ccc(OC)cc2)C2=C(CC(C)(C)CC2=O)N1 (centres unmarked)
Second: Cc1ccc(CN2C(=O)[C@H]3Cc4c([nH]c5ccccc45)C(C)(C)N3C2=O)cc1
The “hERG current change (%, negative = inhibition) at 1uM” value of the first is lower: 2.41% for the first, 19.7% for the second.

Going from `NC1=NC[C@H](c2ccccc2)N1CCc1cc(C(F)(F)F)cc(C(F)(F)F)c1` to `COc1cc2c(cc1OC)CN(c1ccc(C(F)(F)F)cn1)CC2`, the “hERG current change (%, negative = inhibition) at 1uM” value rises from -2.01% to 14.8%.

Compared with `CCOC(=O)/C(C#N)=C/c1c[nH]c2ccccc12`, `COC(=O)c1ccc(N=Cc2c(-c3ccccc3)[nH][nH]c2=O)cc1` is higher in “hERG current change (%, negative = inhibition) at 1uM” value: 3.21% for the first, 12.3% for the second.

Compared with `O=C(/C=C/c1cccs1)NC(=S)Nc1ccc(S(=O)(=O)Nc2ccccc2C(F)(F)F)cc1`, `CC(=O)c1cc2c(cc1NS(=O)(=O)c1ccc(F)cc1)OCO2` is higher in “hERG current change (%, negative = inhibition) at 1uM” value: 10.2% for the first, 20.7% for the second.

Compared with `Cc1ccccc1CS(=O)(=O)c1cnc2ccccc2n1`, `Cc1n[nH]c(C)c1S(=O)(=O)N1CCc2ccccc21.Cl` is higher in “hERG current change (%, negative = inhibition) at 1uM” value: 10.7% for the first, 11.6% for the second.

Going from `CC(=O)C1=C(O)C(=O)N(c2ccc(O)cc2)C1c1ccc(F)cc1` (centres unmarked) to `CC(C)(C)C(=O)Nc1ccc(Oc2ccc3c(c2)C(=O)N(c2ccc(O)cc2)C3=O)cc1`, the “hERG current change (%, negative = inhibition) at 1uM” value falls from 15.3% to -22.8%.

Compared with `C=CCn1c(SCC(=O)NCC)nnc1-c1cc2c(s1)CCC(CC)C2` (centres unmarked), `Cc1cc(C)nc(N2CCCC(C(=O)NCCC3=CCCCC3)C2)n1` (centres unmarked) is lower in “hERG current change (%, negative = inhibition) at 1uM” value: 9.96% for the first, 0.0136% for the second.

Going from `O=C(CCCCl)Nc1nc(-c2ccc3c(c2)OCCO3)cs1` to `N#Cc1ccc(S(=O)(=O)N2CCN(C(=O)C3CC(=O)N(c4ccc5c(c4)OCCO5)C3)CC2)cc1` (centres unmarked), the “hERG current change (%, negative = inhibition) at 1uM” value falls from 10.4% to -4.01%.

Going from `O=C1OCc2nc3cc4c(cc3c(-c3ccc(F)cc3)c21)OCO4` to `CCc1cc(=O)oc2c(C)c(OS(C)(=O)=O)ccc12`, the “hERG current change (%, negative = inhibition) at 1uM” value falls from 20.4% to 2.89%.

First: O=S(=O)(NCc1ccco1)c1ccc(S(=O)(=O)N2CCCC2)cc1
Second: Cc1ccc(Cl)cc1N1CCN(S(=O)(=O)c2c(C)[nH]c(C)c2C(=O)N2CCCC2)CC1
The “hERG current change (%, negative = inhibition) at 1uM” value of the first is higher: 15.4% for the first, 10.1% for the second.

Going from `Cc1cc(C)c2c(=O)[nH]c(SCC(=O)N3CCCCC3)nc2n1` to `CC(C)Nc1nc(Cl)nc(NNC(=O)C(C)Oc2ccccc2)n1` (centres unmarked), the “hERG current change (%, negative = inhibition) at 1uM” value rises from 1.86% to 4.7%.

`COc1ccc(NC(=S)Nc2ccccn2)c(OC)c1` was tested, and the “hERG current change (%, negative = inhibition) at 1uM” value was 15.2%.

From PMC4336329 (PLoS ONE, 2015)
